Results on 44 compounds are retold here after PMC4336329 (PLoS ONE, 2015).

Screen size: about 310,000 compounds; about 14,000 (4.5%) showed an effect of 50% or more. Effects have a minus sign here. The list shows a part of the results.
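Further: peak tail current of the secondary pulse compared with the same well before compound.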

The target of the assay is human ether-à-go-go-related gene (hERG) potassium channel (human, UniProt Q12809). Nature of the assay: primary screen, population patch clamp on CHO cells stably expressing hERG.
Sequence of human ether-à-go-go-related gene (hERG) potassium channel (Q12809 whole entry, looked up): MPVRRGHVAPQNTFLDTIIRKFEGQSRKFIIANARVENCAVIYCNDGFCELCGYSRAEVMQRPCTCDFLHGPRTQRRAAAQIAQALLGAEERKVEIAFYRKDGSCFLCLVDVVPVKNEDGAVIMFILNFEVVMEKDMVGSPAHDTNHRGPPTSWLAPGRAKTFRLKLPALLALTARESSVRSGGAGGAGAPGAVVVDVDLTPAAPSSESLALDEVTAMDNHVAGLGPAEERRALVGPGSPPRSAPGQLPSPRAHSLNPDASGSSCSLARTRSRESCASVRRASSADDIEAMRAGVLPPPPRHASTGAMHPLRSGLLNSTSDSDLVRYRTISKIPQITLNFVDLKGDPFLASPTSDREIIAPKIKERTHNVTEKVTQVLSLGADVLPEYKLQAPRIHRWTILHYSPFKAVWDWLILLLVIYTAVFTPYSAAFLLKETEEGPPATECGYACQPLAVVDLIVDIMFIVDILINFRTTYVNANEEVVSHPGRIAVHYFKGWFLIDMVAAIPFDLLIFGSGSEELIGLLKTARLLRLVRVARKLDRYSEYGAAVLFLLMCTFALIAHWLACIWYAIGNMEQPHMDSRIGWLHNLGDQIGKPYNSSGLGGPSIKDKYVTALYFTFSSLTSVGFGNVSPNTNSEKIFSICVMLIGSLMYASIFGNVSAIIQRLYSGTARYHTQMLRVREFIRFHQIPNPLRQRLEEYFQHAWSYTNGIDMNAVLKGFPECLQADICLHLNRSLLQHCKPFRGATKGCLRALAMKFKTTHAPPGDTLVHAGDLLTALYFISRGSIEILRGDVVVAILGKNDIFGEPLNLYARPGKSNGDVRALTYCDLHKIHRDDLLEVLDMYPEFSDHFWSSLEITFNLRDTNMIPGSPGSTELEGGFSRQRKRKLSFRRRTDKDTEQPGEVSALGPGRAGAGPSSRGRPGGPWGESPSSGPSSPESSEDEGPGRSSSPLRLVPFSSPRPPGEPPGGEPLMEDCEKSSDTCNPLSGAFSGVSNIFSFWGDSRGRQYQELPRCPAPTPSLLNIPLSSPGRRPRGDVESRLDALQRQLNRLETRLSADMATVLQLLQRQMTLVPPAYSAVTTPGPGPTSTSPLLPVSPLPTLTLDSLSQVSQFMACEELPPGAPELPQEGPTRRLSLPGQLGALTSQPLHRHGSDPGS
Consider `Cc1nn(-c2ccccc2)c(C)c1NC(=O)COC(=O)CC(C)c1ccccc1` (centres unmarked), for which the “hERG current change (%, negative = inhibition) at 10uM” value is -16%.
For `Cc1cc(NCc2ccccc2)nc(N2CCOCC2)n1` the value was -21.3%; for `O=C(Cn1c2c(c(=O)n3ncnc13)CCC2)N/N=C/c1cccs1`, 0.665%.
Then `CCCC(=O)Nc1ccc(NC(=O)c2ccccc2)nc1`, with 12.5%; and `Cc1cccc(OCC(=O)N2CCC(N3CCCCCC3)CC2)c1`, with -11.2%.
Then `CCOc1ccc(CCNC(=O)CCNC(=O)c2ccccc2Cl)cc1OCC`, with 13.8%; and `COCCN1CCN(C(=O)c2ccc3nc(Cc4ccc(OC)c(OC)c4)oc3c2)CC1`, with 2.42%.
In the case of `O=[N+]([O-])c1ccc(N2CCN(c3ccc(F)cc3)CC2)cn1`, the “hERG current change (%, negative = inhibition) at 10uM” value was -48.7%.
Then `N=c1c(C(=O)NCc2ccc(F)cc2)cc2c(=O)n3ccccc3nc2n1Cc1ccco1`, with -77.8%; and `Cc1cc(C)n(CC(O)Cn2c3ccc(Cl)cc3c3cc(Cl)ccc32)c(=O)n1` (centres unmarked), with 5.62%; and `O=C(N/N=C/c1cccs1)c1cc(-c2ccc(Cl)s2)[nH]n1`, with 13%.
For `CN(CC(=O)Nc1ccc(Cl)c(C(F)(F)F)c1)C(=O)Cc1n[nH]c(=O)c2ccccc12` the value was -16.2%.
As for `CCCCn1c(=O)cc(C)n(-c2ccccc2)c1=O`, the “hERG current change (%, negative = inhibition) at 10uM” value is reported as 0.0608%.
Then `Cc1ccc(CCNC(=O)C2CCC(=O)N2C2CCCC2)cc1` (centres unmarked), with 4.57%.
Then `COC(=O)[C@@H](NC(=O)N1CCN(C(=O)C2COc3ccccc3O2)CC1)C(C)C` (some centres unmarked), with -2.44%; and `CCOc1ccc(-c2cc(NC(=O)Cn3ncc4c3-c3ccccc3OC4)on2)cc1OCC`, with 13.6%; and `CCOC(=O)NC(=S)Nc1cccc(NC(=S)NC(=O)OCC)c1`, with 18.7%.
Then `CC(=O)Nc1ccc(C(=O)N/N=C/c2ccc(F)cc2)cc1`, with -23.3%; and `O=C(Cn1ncc2c1-c1ccccc1OC2)Nc1ccc(S(=O)(=O)N2CCCCC2)cc1`, with -1.8%.
In the case of `Oc1ccc(Nc2nc(-c3cccs3)cs2)cc1`, the “hERG current change (%, negative = inhibition) at 10uM” value is on record as 4.16%.
Then `COc1cc2c(CCNC(C)=O)c[nH]c2cc1Cl`, with 4.35%.
Regarding `COc1ccc(CCNc2oc(COc3ccccc3F)nc2C#N)cc1OC`, the “hERG current change (%, negative = inhibition) at 10uM” value is on record as -12.6%.
With `CC(=O)NC(CC(=O)NC12CC3CC(CC(C3)C1)C2)c1ccccc1` (centres unmarked), the “hERG current change (%, negative = inhibition) at 10uM” value is given as 1.55%.
Then `CCN(CC)CCCNC1=C(Cl)C(=O)c2ccccc2C1=O`, with -41.1%.
For `O=C(NCc1ccccn1)c1cccc([N+](=O)[O-])c1` the value was -1.38%; for `CCc1sc(C(=O)NC(C)C2CCCO2)cc1Br` (centres unmarked), 2.9%; for `Cc1ccc(CNC(=O)C(=O)c2cn(CC(=O)N3CCOCC3)c3ccccc23)cc1`, -2.76%.
For `CCN(CC)CCN1C(=O)C(=O)/C(=C(/O)c2cccc(OC)c2)C1c1ccccn1` (centres unmarked) the value was 8.24%.
`CCNC(=O)CC1C(=O)N(c2ccccc2)C(=O)N1CCc1ccc(OC)cc1` (centres unmarked): the “hERG current change (%, negative = inhibition) at 10uM” value is recorded as -10.3%.
Then `Cc1ccc(N2C(=O)C3C4C=CC(C4)C3C2=O)cc1C` (centres unmarked), with 13.3%; and `CC(Cc1ccccc1)NCC(=O)Nc1cc(N(C)C)nc2ccccc12.O=C(O)C(=O)O` (centres unmarked), with -77.1%.
Then `CCOC(=O)c1c(NC(=O)CSc2nnnn2C)sc(C)c1-c1ccc(C)cc1`, with -11.2%; and `CNCc1cc(Br)c(OCC(=O)Nc2ccccc2OC)c(OC)c1.Cl`, with -36.2%; and `COc1ccc(Cc2noc(CN3CCCN(Cc4ccc(F)cc4)CC3)n2)cc1OC`, with -60.8%.
Then `O=C1NC(=O)/C(=C/c2ccccc2OCc2ccccc2)S1`, with 17.2%; and `O=C(NCCc1ccccc1)c1cccc2c1C(=O)N(C1CCCCC1)C2`, with 13.8%.
For the compound `Cc1cc(C)cc(N(CC(=O)NC2CCCC2)C(=O)c2csnn2)c1`, the “hERG current change (%, negative = inhibition) at 10uM” value worked out at 25.6%.
Then `CCCCn1c(N)c(N(CCOC)C(=O)COC(=O)Cc2cccc(OC)c2)c(=O)[nH]c1=O`, with -26.9%; and `Cc1cc2c(cc1C)-c1nnc(-c3ccc4ccccc4n3)n1C(C)(C)C2`, with 5.88%; and `COC(=O)CSc1nc2cc3c(cc2cc1C)OCCO3`, with 13.3%.
Then `CCn1c(=O)c(CCC(=O)NCC2CCCO2)c(C)c2c(C)nn(-c3ccccc3)c21` (centres unmarked), with 12.5%; and `COCCNC(=O)c1cc2cc(Cl)cc(Cl)c2oc1=O`, with -4.51%; and `O=C(CN1C(=O)/C(=C\c2ccc(F)cc2)Oc2ccccc21)N1CCN(c2ccccn2)CC1`, with -2.49%.
Then `CCn1c(C)c(C(C)=O)c(N2CCN(c3ccccn3)CC2)nc1=S`, with -9.78%.
